Experimental data reported in publication PMC6919601, “Identification of Plasmodium dipeptidyl aminopeptidase allosteric inhibitors by high throughput screening” (PLoS ONE, 2019).
Screen size: about 110,000 compounds; about 230 (0.21%) showed an effect of 50% or more. This is one part of the list.

Biological target: DPAP1 (Plasmodium falciparum, UniProt Q8IIJ9)
Assay: primary screen, percent inhibition; read by cleavage of a fluorogenic dipeptide substrate; higher = more effect of the substance
Set-up: species or system P. falciparum D10 trophozoite lysates; single well
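Note: 30 min substrate incubation versus DMSO and 10 µM JCP410 controls.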

DPAP1, sequence (Q8IIJ9 whole entry, looked up): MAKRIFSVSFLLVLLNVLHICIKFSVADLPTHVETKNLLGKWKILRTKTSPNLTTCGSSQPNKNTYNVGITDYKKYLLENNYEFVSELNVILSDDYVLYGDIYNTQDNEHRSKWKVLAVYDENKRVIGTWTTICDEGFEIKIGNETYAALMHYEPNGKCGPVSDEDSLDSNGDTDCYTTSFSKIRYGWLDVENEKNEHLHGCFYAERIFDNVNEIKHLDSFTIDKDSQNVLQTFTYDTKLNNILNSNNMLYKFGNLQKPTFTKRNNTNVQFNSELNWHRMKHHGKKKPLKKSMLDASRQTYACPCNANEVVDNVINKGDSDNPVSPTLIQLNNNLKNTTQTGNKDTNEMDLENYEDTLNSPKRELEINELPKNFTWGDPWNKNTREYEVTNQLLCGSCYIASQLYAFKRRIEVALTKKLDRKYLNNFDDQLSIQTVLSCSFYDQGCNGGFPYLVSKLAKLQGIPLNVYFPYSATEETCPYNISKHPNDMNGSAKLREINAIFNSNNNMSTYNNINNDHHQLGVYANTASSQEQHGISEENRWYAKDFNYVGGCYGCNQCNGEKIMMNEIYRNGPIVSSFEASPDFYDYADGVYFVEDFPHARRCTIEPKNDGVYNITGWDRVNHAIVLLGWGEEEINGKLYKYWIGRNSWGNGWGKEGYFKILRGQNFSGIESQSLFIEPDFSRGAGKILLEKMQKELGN

SMILES | % Inhibition @ 10 uM [%]
COc1cccc2c1oc(=O)c1c(NC(C)=O)nc3c(c12)CCCC3 | 0.415
N#CCNC(=O)[C@H](CSCc1ccccc1)NC(=O)c1ccc2ccccc2n1 | 1.35
CC1CCCCN1S(=O)(=O)c1ccc(NC(=O)c2ccco2)cc1 (stereo not drawn) | 1.57
COc1ccc2cc(CCNS(C)(=O)=O)c(O)nc2c1 | 0.13
CCOc1ccc(C2C(C#N)=C(N)Oc3[nH]nc(-c4ccccc4)c32)cc1OCC (stereo not drawn) | 5.49
CC(C)C[C@H](NC(=O)c1ccc(C2CCCCC2)cc1)C(=O)NCC#N | -8.26
Cc1cccc(-c2cc(C(=O)Nc3ccccc3C(N)=O)c3ccccc3n2)c1 | 10.2
CC(C)(C)NC(=O)c1oc2ccccc2c1NC(=O)c1cccc(F)c1 | -0.909
Cc1c(C(=O)NC(C)(C)C)sc2nc(-c3ccccc3)cn12 | -7.53
CCN(CC)CCNC(=O)COc1ccc(Cl)cc1Cl | 4.35
Nc1ccc(S(=O)(=O)NCCc2ccccc2)cc1 | -7.96
N#Cc1c(-n2cccc2C#N)sc2c1CCCC2 | -5.11
CC(=O)/C(=C1\NC(C)(C)Cc2cc(C)c(C)cc21)c1ccccc1 | 0.587
CC1(C)CC(NCCC#N)CC(C)(C)N1 | 2.78
Cc1ccccc1OCC(=O)N1CCN(C(=O)COc2ccccc2C)CC1 | 6.79
COC(=O)c1ccc(OP2(=O)COc3ccccc3OC2)cc1 | 0.413
Cc1c(NC(=O)c2c(Cl)cccc2Cl)c(=O)n(-c2ccccc2)n1C | 3.44
CC(C)NC(=O)c1ccc(CS(=O)Cc2ccc(Cl)cc2)o1 (stereo not drawn) | 2.03
CCOC(=O)C1=C(C)N=C(SC)NC1c1ccc(N(C)C)cc1 (stereo not drawn) | 0.219
Cc1cc2c(cc3c(=O)n(CC(=O)N4CCCCC4)ncn32)s1 | 0.0198
CCSC1=C(C#N)C(c2ccc(Cl)cc2)CC(=O)N1 (stereo not drawn) | -11.9
CC1(C)Cc2ccccc2C2CC(O)C(=O)N21 (stereo not drawn) | -0.13

SMILES | % Inhibition @ 10 uM [%]
CCn1c2ccccc2c2nnc(N3CCc4ccccc4C3)nc21 | 15.1
O=C(O)c1n[nH]c(N2C(=O)c3ccccc3C2=O)n1 | -4.15
COCCCNC(=O)C1Sc2nnc(-c3ccccc3)n2NC1c1ccc(OC)c(Cl)c1 (stereo not drawn) | 0.0289
Cc1ccc2c(c1Br)C1(C(=O)N2)C(C#N)=C(N)OC2=C1C(=O)CCC2 (stereo not drawn) | 2.4
O=S(=O)(NCc1ccccc1Cl)c1ccc(-n2cccn2)cc1 | 1.77
Cc1ccc(S(=O)(=O)NCC2CCC(C(=O)N(C)C3CCCCC3)CC2)cc1 (stereo not drawn) | 5.47
Cc1ccc(OCC(O)CN2CCN(c3ccc(C)cc3)CC2)cc1 (stereo not drawn) | 0.189
O=C1NC(=O)/C(=C\c2c(OCc3ccc(Br)cc3)ccc3ccccc23)N1 | 5.18
COc1cc(-c2noc(CN3CCOCC3)n2)cc(OC)c1OC | -2.16
O=C(Cn1ncc2c3ccccc3n(Cc3ccccc3)c2c1=O)N1CCN(C2CCCCC2)CC1 | 6.46
COc1ccc(C2C(C(=O)NCCCN3CCOCC3)c3cc(OC)c(OC)cc3C(=O)N2C)cc1 (stereo not drawn) | 3.61
O=C(Cc1nnc(-c2ccc(Br)cc2)o1)NC1CCN(Cc2ccccc2)CC1 | 2.28
CCc1c(C)sc(NC(=O)c2c(-c3c(F)cccc3Cl)noc2C)c1C(N)=O | 5.42
C/C(=C1/SC(N2CC(C)OC(C)C2)=NC1=O)c1ccccc1 (stereo not drawn) | 0.147
CC1CCc2nn(CC(=O)N3CCN(C(=O)c4ccco4)CC3)cc2C1 (stereo not drawn) | 4.95
O=S(=O)(Nc1c(O)nc2ccc(Cl)cc2c1-c1ccccc1)c1ccccc1 | 14
O=C(Cn1ncc2c(Cl)cccc21)NCCN1CCOCC1 | -1.11
CC(C(=O)Nc1sc2c(c1C(=O)NCc1ccco1)CCCC2)N1C(=O)c2ccccc2C1=O (stereo not drawn) | 2.67
N#C/C(=C\c1ccc2c(c1)OCO2)c1nc2ccccc2[nH]1 | 1.29
COc1ccc(C(=O)Nc2cc(C)cc(C)c2)cc1 | 2.22
Cc1ccc(NC(=O)C2CCN(C(=O)c3ccc(Br)cc3)CC2)c(C)c1 | -2.58
CSc1cccc(NC(=O)C2C3C=CC(O3)C2C(=O)O)c1 (stereo not drawn) | -8.38

SMILES | % Inhibition @ 10 uM [%]
CCc1cccc2c(C#N)cn(CC(=O)NCc3ccccc3)c12 | -0.105
O=C(CCCN1C(=O)CSc2ncccc21)N1CCOCC1 | -0.637
CCCCCn1c(COC)nc2ccccc21 | -7.83
CC1CCC(NCCCN2CCOCC2)CC1 (stereo not drawn) | -5.59
COCCNC(=O)c1nn(C)c(=O)c2ccccc12 | 3.93
CCCCNC(=O)c1noc2c1CCc1ccccc1-2 | -3.12
Cc1ccsc1CN1CCCC1CO (stereo not drawn) | -5.31
Cc1ccc2ncc(C(=O)c3ccccc3)c(N3CCOCC3)c2c1 | 0.54
NC(=O)c1sc2ncc([N+](=O)[O-])cc2c1N | 5
O=C(O)c1ccc(CNC(=O)c2ccc(C(F)(F)F)cc2)cc1 | -1.24
COc1cc(CN(C)CCN(C)C)cc(OC)c1 | -1.05
Cn1cnc2c(=O)oc3ccc(S(=O)(=O)N4CCN(Cc5ccccc5)CC4)cc3c21 | -0.591
Cc1ccc(-c2onc(C)c2C)cc1S(=O)(=O)N1CCCCC1C (stereo not drawn) | -3.18
Cc1ccc(C2CC(=O)N=C(NC(=O)CCCOc3ccccc3)N2)cc1 (stereo not drawn) | 6.29
COc1cc(C2=NOC(C(=O)NCC(C)C)C2)cc(OC)c1OC (stereo not drawn) | -3.94
CN(CCNC(=O)Cn1ncc2c1-c1ccccc1OC2)C1CCCCC1 | 0.775
Cc1ccc(C2(c3ccc(C)cc3)CC2C(=O)NCc2ccco2)cc1 (stereo not drawn) | -2.03
CC(C)(C)c1ccc(OCc2ccc(C(=O)O)cc2)cc1 | -3
O=C(O)c1ccc2c(c1)C1C=CCC1C(c1cccc(Cl)c1Cl)N2 (stereo not drawn) | 0.132
O=C(NCc1ccccn1)c1ccc(CSc2nc3ccncc3n2Cc2ccccc2F)cc1 | 3.3
N=C1S/C(=C\c2ccco2)C(=O)N1c1nccs1 | -3.74
CCc1nc(N)c(C#N)c(-c2ccc(Br)s2)c1C | -3.13
